# Article PMC4336329 (PLoS ONE, 2015)
# Screen size: about 310,000 compounds; about 2,200 (0.71%) showed an effect of 50% or more. Effects have a minus sign here. Some of the results follow.
# Target: human ether-à-go-go-related gene (hERG) potassium channel (human, UniProt Q12809)
# Experiment: primary screen, population patch clamp on CHO cells stably expressing hERG
# human ether-à-go-go-related gene (hERG) potassium channel, sequence (Q12809 whole entry, looked up): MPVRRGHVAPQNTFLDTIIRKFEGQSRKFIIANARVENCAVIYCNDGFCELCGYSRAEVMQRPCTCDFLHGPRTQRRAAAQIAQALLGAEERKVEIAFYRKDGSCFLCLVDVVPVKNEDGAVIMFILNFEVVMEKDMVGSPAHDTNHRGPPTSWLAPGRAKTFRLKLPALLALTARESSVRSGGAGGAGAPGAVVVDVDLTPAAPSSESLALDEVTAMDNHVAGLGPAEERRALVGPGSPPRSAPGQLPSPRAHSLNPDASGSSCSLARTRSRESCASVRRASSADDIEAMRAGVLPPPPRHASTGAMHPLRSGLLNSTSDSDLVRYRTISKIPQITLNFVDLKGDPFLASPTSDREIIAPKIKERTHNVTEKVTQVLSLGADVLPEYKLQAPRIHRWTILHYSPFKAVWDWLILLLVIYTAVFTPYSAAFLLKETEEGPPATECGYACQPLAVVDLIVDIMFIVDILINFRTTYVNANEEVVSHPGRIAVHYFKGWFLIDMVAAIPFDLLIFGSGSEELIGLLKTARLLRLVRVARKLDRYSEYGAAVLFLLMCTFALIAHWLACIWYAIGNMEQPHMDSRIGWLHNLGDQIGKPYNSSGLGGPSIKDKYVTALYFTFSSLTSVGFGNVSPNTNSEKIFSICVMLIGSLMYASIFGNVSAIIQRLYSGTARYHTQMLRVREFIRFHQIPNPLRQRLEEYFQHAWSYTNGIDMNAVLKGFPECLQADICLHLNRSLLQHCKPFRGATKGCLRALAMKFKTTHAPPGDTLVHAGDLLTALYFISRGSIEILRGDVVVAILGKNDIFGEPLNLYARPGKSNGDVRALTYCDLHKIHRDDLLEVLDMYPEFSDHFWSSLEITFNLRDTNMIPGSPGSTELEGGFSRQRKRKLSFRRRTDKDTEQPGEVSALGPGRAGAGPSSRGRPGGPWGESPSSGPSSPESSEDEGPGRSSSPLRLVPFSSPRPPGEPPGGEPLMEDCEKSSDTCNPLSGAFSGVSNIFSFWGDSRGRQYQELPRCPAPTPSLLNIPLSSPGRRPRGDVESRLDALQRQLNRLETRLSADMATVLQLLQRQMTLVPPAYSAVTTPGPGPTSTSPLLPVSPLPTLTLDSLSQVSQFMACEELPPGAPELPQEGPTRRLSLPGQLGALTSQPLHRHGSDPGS
row,Compound,"hERG current change (%, negative = inhibition) at 1uM [%]"
1,CCc1nc2ccccc2c(C(=O)OCC(=O)Nc2cccc(S(=O)(=O)NC3=NCCCCC3)c2)c1C,10.3
2,CC(C)=C1C2CCC1C(C(=O)Nc1sc(C)c(-c3ccc(C(C)C)cc3)c1C(N)=O)C2C(=O)O (centres unmarked),1.88
3,O=C1C2C3C=CC(C4CC34)C2C(=O)N1c1ccc2c(c1)OCO2 (centres unmarked),16.7
4,CC1CC(C)CN(C(=O)c2ccc3ccccc3c2)C1 (centres unmarked),1.55
5,O=S(=O)(Nc1ccc2c(c1)OCCO2)c1cccc(F)c1,13.4
6,COc1ccc(NC(C)=O)cc1NC(=O)CSc1nnc(-c2ccncc2)n1C,16.6
7,Cc1oc(-c2ccc(Cl)cc2)nc1CS(=O)CC(=O)NCCCN1CC(C)CC(C)C1 (centres unmarked),-34.2
8,COc1cnc(-c2ccccc2)nc1Oc1ccccc1C,-6.15
9,COc1ccc(OC)c(-c2nc(C(=O)NCC3CCCO3)cc3c2[nH]c2ccccc23)c1 (centres unmarked),-11.4
10,CCOC(=O)NC(=O)/C(C#N)=N/Nc1ccc(F)cc1,-1.11
11,CC(O)c1cccc(NC2=CC(=O)CC(C)(C)C2)c1 (centres unmarked),3.49
12,Cc1c(NC(=O)c2cnn3c2NC(c2ccco2)CC3C(F)(F)F)c(=O)n(-c2ccccc2)n1C (centres unmarked),5.11
13,COc1cc2c(cc1OC)CN(C(=O)C1CCC(=O)N(CCCN3CCOCC3)C1)CC2 (centres unmarked),14.4
14,O=C(Nc1ccccc1)N(CCCN1CCOCC1)Cc1cccs1,-29.2
15,Cc1cccc(-c2nc(CS(=O)CC(=O)NCc3cccs3)c(C)o2)c1 (centres unmarked),1.55
16,CC1CCCC(C(=O)O)N1C(=O)CCS (centres unmarked),-6.86
17,CC(=O)Nc1ccc(-c2nc3ccc(NC(C)=O)cc3o2)cc1,16.1
18,Cc1ccc(NC(=S)Nc2ccc(S(=O)(=O)Nc3ncccn3)cc2)cc1Cl,11.2
19,Cc1ccccc1C(=O)NC1CCN(C(=O)N(c2ccccc2)c2ccccc2)CC1,5.04

row,Compound,"hERG current change (%, negative = inhibition) at 1uM [%]"
1,CC(C)(C)C(=O)COC(=O)c1cc(S(=O)(=O)N2CCCCC2)ccc1N1CCOCC1,1.17
2,CCOC(=O)CN=C/C(C(C)=O)=C(/C)O,17.4
3,Cc1cc(Cl)ccc1OC(C)c1nnc(N)s1 (centres unmarked),5.15
4,O=c1c(Cc2c(F)cccc2Cl)c(O)ccn1CCc1c[nH]c2ccccc12,6.54
5,Nc1ccc(Cl)c(S(=O)(=O)Nc2ccccc2Cl)c1,8.84
6,COC(=O)CN1CC(=O)N(c2ccccc2)C1=S,13
7,CC(C)CC(C(=O)N1CCc2ccccc2C1)N1C(=O)c2ccccc2C1=O (centres unmarked),7.47
8,COc1cccc(C(=O)COC(=O)C2CC3CCCC(C2)C3=O)c1 (centres unmarked),12
9,Cc1nnc(NC(=O)C2CSC3(C)CCC(=O)N23)s1 (centres unmarked),11.9
10,O=C(COC(=O)c1ccccn1)c1cccc(Br)c1,9.34
11,Cc1ccc(NS(=O)(=O)c2c(C)nc3sccn3c2=O)c(C)c1,-8.71
12,COC(=O)c1ccccc1NC(=S)NC(=O)C1CC1,-17.2
13,N#Cc1ccc(N/N=C/c2ccccc2)c([N+](=O)[O-])c1,6.08
14,O=C(NCc1cc([N+](=O)[O-])ccc1O)c1cccnc1Sc1ccc(Cl)cc1,16.3
15,O=C(O)C1CC=CCC1C(=O)Nc1ccc(Oc2ccc(Cl)cc2)cc1 (centres unmarked),13.5
16,COc1ccc(C(=O)COC(=O)Cc2c[nH]c3ccccc23)c(OC)c1,9.86
17,COc1ccc(CCNc2oc(COc3ccc(Br)cc3)nc2C#N)cc1OC,1.63
18,CCCN1CN(c2ccccc2)C(=S)N(c2ccccc2)C1,17
19,COCCN1C(=O)c2oc3cc(C)c(C)cc3c(=O)c2C1c1ccc(O)cc1 (centres unmarked),18.2

row,Compound,"hERG current change (%, negative = inhibition) at 1uM [%]"
1,COc1ccc(N2C(=O)NC(=O)/C(=C/c3ccc([N+](=O)[O-])s3)C2=O)cc1,12.9
2,O=C(Cc1ccc(N(CCCl)CCCl)cc1)NC(Cc1ccc(Cl)cc1)C(=O)O (centres unmarked),10.5
3,CCn1c(SCC(=O)NCc2ccco2)nnc1-c1ccc(N)cc1,11.5
4,CCOc1ccc(N(CC(=O)NCCc2ccccc2)C(=O)CCC(=O)Nc2nccs2)cc1,-4.07
5,COc1cc(CCC(=O)OCC(=O)Nc2cccc(S(N)(=O)=O)c2)cc(OC)c1OC,16.9
6,O=C(CN1CCCC1c1cccs1)Nc1cccc(S(=O)(=O)N2CCCC2)c1 (centres unmarked),17.6
7,O=C(N/C=C/c1ccc(Cl)cc1)NCc1ccc(Cl)cc1,6.83
8,CCC1CCC2(CC1)NC(=O)N(CC(=O)Nc1cccc(S(=O)(=O)N(C)c3ccccc3)c1)C2=O (centres unmarked),0.767
9,COc1ccc(N(CC(=O)NC2CCCCC2)S(=O)(=O)c2c(C)[nH]c(=O)[nH]c2=O)cc1,15.2
10,O=C(O)CCc1ccc(S(=O)(=O)N2CCOCC2)cc1,10.4
11,C=CCn1c(C)nnc1SCC(=O)N1CCN(S(=O)(=O)c2ccccc2)CC1,14.8
12,NC(=O)C1CCN(C(=O)COc2ccc3c4c(c(=O)oc3c2)CCCC4)CC1,10.2
13,Cc1ccc(-c2nn(-c3ccccc3)cc2/C=C/C(=O)Nc2nccs2)cc1,10.5
14,Cc1ccc(S(=O)(=O)NCCNc2ccc([N+](=O)[O-])cc2C(F)(F)F)cc1,7.37
15,CCn1nc(C)c(NC(=O)Nc2cccc(Cl)c2Cl)c1C,19.6
16,Nc1ccccc1C(=O)NCCCN1CCN(c2cccc(Cl)c2)CC1,-49.6
17,CCOC(=O)c1c2ccccc2[n+]([O-])n1CCO,6.51
18,Cc1oc2c(c1C(=O)NCCCC(=O)O)CCCC2,10.4
